Cytotoxicity call and growth inhibition call data for 40 compounds are collected here from the antibiotic and cytotoxicity screens of Wong et al. (2023).

The structures appear in SMILES notation. The list shows a part of the results.

The first assay deals with HepG2. Put plainly: cytotoxicity call (relative viability < 0.9). Conditions: 10 µM.
On to `C[C@H](CO)N1C[C@H](C)[C@H](CN(C)Cc2ccc(-c3ccccc3)cc2)Oc2c(NS(=O)(=O)c3ccc(F)cc3)cccc2C1=O`, for which the cytotoxicity call is “active”.

Regarding `CC(C)[C@H](NC(=O)[C@H](C)N(C)C)C(=O)N1CC[C@@H]2Oc3ccc(cc3)/C=C\NC(=O)[C@H](Cc3ccccc3)NC(=O)[C@H]21`, the cytotoxicity call was “inactive”.

Turning to `CC(C)N1C[C@H](CN(C)Cc2ccc(Oc3ccccc3)cc2)Oc2c(NC(=O)c3ccncc3)cccc2C1=O`, the cytotoxicity call was “inactive”.

For `CC(C)N1CC2(CN([C@@H](C)c3ccc(Cl)cc3)C2)Oc2c(NC(=O)c3ccncc3)cccc2C1=O`, the cytotoxicity call is “inactive”.

On to `CO[C@@H]1[C@@H](OC(=O)c2ccc(C)[nH]2)[C@@H](O)[C@@H](Oc2ccc3c(c2C)OC(=O)[C@H](NC(=O)c2[nH]cc(CC(=O)Nc4cc5ccc(O[C@@H]6OC(C)(C)[C@H](OC)[C@@H](OC(=O)c7ccc(C)[nH]7)[C@H]6O)c(C)c5oc4=O)c2C)C3)CC1(C)C`, for which the cytotoxicity call was “inactive”.

Take `Cc1ccc(S(=O)(=O)Nc2ccc3c(c2)C(=O)N([C@H](C)CO)C[C@@H](C)[C@H](CN(C)S(=O)(=O)c2ccc(F)cc2)OCCCC[C@@H](C)O3)cc1`: the cytotoxicity call was “inactive”.

`O=C(c1ccc(Cl)cc1)c1coc2c1cc(O)c1ccccc12`: the cytotoxicity call was “active”.

On to `C[C@@H]1CCCCO[C@H](CN(C)C(=O)c2ccccc2)[C@H](C)CN([C@H](C)CO)C(=O)c2cc(NS(=O)(=O)c3cccs3)ccc2O1`, for which the cytotoxicity call was “inactive”.

Consider `Cc1noc(C)c1NC(=O)Nc1ccc2c(c1)C(=O)N([C@H](C)CO)C[C@@H](C)[C@H](CN(C)C(=O)c1ccccc1)OCCCC[C@H](C)O2`, for which the cytotoxicity call was “inactive”.

As for `Cc1noc(C)c1NC(=O)N(C)C[C@H]1OCCCC[C@@H](C)Oc2ccc(NC(=O)Cc3ccccc3)cc2C(=O)N([C@@H](C)CO)C[C@@H]1C`, the cytotoxicity call is “inactive”.

Take `O=C(C[C@@H]1C=C[C@H](NC(=O)C2CC2)[C@H](CO)O1)NCCCN1CCOCC1`: the cytotoxicity call was “inactive”.

With `C[C@H](CO)N1C[C@H](C)[C@@H](CN(C)S(=O)(=O)c2ccc(Cl)cc2)Oc2ccc(NC(=O)Nc3ccc(C(F)(F)F)cc3)cc2CC1=O`, the cytotoxicity call is “active”.

Another assay deals with S. aureus RN4220. Put plainly: growth inhibition call (relative growth <= 0.2). The settings on record: 50 µM.
As to `O=C(O)CCCC[C@@H]1SC[C@@H]2NC(=O)N[C@@H]21`, the growth inhibition call is “inactive”.

As for `C[C@@H]1O[C@@H](O[C@@H]2[C@@H](O)[C@H](C)O[C@@H](OC[C@H]3O[C@@H](Oc4c(-c5ccc(O)c(O)c5)oc5cc(O)cc(O)c5c4=O)[C@@H](O)[C@@H](O)[C@@H]3O)[C@@H]2O)[C@H](O)[C@H](O)[C@H]1O`, the growth inhibition call was “inactive”.

Consider `COc1ccc(NC(=O)Nc2ccc3c(c2)C(=O)N([C@@H](C)CO)C[C@@H](C)[C@H](CN(C)S(=O)(=O)c2ccc(C)cc2)OCCCC[C@H](C)O3)cc1`, for which the growth inhibition call was “inactive”.

For the compound `C[C@H](CO)N1C[C@H](C)[C@@H](CN(C)C(=O)Nc2ccccc2)Oc2ccc(NC(=O)C3CC3)cc2CC1=O`, the growth inhibition call is “inactive”.

For `O=C(NO)c1ccc(-c2cn(CC(=O)N3CCOCC3)nn2)s1`, the growth inhibition call is “inactive”.

Consider `C[C@H](CO)N1C[C@H](C)[C@H](CN(C)Cc2ccc(C(F)(F)F)cc2)Oc2ccc(NC(=O)Nc3ccc(C(F)(F)F)cc3)cc2C1=O`, for which the growth inhibition call is “inactive”.

For `NC1CCN(c2cccc(Cl)n2)CC1`, the growth inhibition call is “inactive”.

Consider `COCCOC(=O)N1C(=O)[C@@]2(c3cc(C#CCNC(N)=O)ccc31)[C@H](C(=O)N1CCc3cc(OC)c(OC)cc3C1)[C@H]1C(=O)O[C@H](c3ccccc3)[C@H](c3ccccc3)N1[C@@H]2c1ccccc1OCCO`, for which the growth inhibition call is “inactive”.

In the case of `C[C@H](CO)N1C[C@H](C)[C@H](CN(C)S(=O)(=O)c2cccs2)Oc2c(NC(=O)Nc3cccc4ccccc34)cccc2C1=O`, the growth inhibition call was “inactive”.

For the compound `C[C@H](CO)N1C[C@H](C)[C@@H](CN(C)C(=O)CCC(F)(F)F)OCCCC[C@H](C)Oc2ccc(NS(=O)(=O)c3ccc(F)cc3)cc2C1=O`, the growth inhibition call was “inactive”.

Regarding `O=C(CCCCCNC(=O)OCc1ccc(CO[C@H]2C[C@@H](c3ccc(C(F)(F)F)cc3)C=C(C(=O)NC3CC3)O2)cc1)NO`, the growth inhibition call was “inactive”.

With `Cc1noc(C)c1NC(=O)N(C)C[C@H]1Oc2c(NC(=O)Nc3cccc4ccccc34)cccc2C(=O)N([C@H](C)CO)C[C@H]1C`, the growth inhibition call was “inactive”.

Take `C[C@@H]1CN([C@H](C)CO)C(=O)c2cccc(NC(=O)Nc3cccc4ccccc34)c2O[C@@H]1CN(C)Cc1ccc(C(=O)Nc2ccccc2N)cc1`: the growth inhibition call was “inactive”.

`Cc1ccc(C(=O)c2ccc(Oc3ccccc3)cc2)cc1`: the growth inhibition call is “inactive”.

As to `CO[C@H]1CN(C)C(=O)c2cc(NC(=O)CC(F)(F)F)ccc2OC[C@H](C)N(C(=O)C2CCOCC2)C[C@H]1C`, the growth inhibition call is “inactive”.

Turning to `C[C@@H]1CN([C@H](C)CO)C(=O)c2cc(NC(=O)Cn3cnnn3)ccc2O[C@H]1CN(C)C(=O)Nc1cccc2ccccc12`, the growth inhibition call was “inactive”.

`C[C@@H]1CN([C@H](C)CO)S(=O)(=O)c2ccc(C#Cc3ccncc3)cc2O[C@@H]1CN(C)S(=O)(=O)c1ccccc1`: the growth inhibition call was “inactive”.

`CCNC(=O)C[C@@H]1CC[C@@H](NC(=O)C2CC2)[C@H](CO)O1`: the growth inhibition call is “inactive”.

On to `NC(=O)c1cc[n+](CC2=C(C(=O)[O-])N3C(=O)C(NC(=O)Cc4cccs4)C3SC2)cc1` (configuration not stated), for which the growth inhibition call is “active”.

As to `COc1ccc(S(=O)(=O)N2C[C@@H](O)COC[C@@H]3O[C@@H](CC(=O)N[C@@H]4CCN(Cc5ccccc5)C4)CC[C@H]32)cc1`, the growth inhibition call was “inactive”.

Take `OC[C@H]1O[C@H](O[C@H]2O[C@H](CO)[C@@H](O)[C@H](O)[C@H]2O)[C@H](O)[C@@H](O)[C@@H]1O`: the growth inhibition call is “inactive”.

On to `C[C@@H]1CN([C@@H](C)CO)C(=O)c2cc(NC(=O)Nc3ccc(F)cc3)ccc2O[C@@H](C)CCCCO[C@H]1CN(C)Cc1ccc(C(=O)O)cc1`, for which the growth inhibition call is “inactive”.

Turning to `C[C@@H]1CCCCO[C@@H](CN(C)C(=O)Nc2ccc(F)cc2)[C@H](C)CN([C@@H](C)CO)C(=O)c2cc(NC(=O)NC3CCCCC3)ccc2O1`, the growth inhibition call was “inactive”.

For `CN(C)c1ccc(O)c2c1C[C@H]1C[C@H]3[C@H](N(C)C)C(=O)[C@@H](C(N)=O)C(=O)[C@@]3(O)C(=O)[C@H]1C2=O`, the growth inhibition call was “active”.

In the case of `C[C@H]1CN([C@@H](C)CO)C(=O)Cc2cc(NC(=O)Cc3ccccc3)ccc2O[C@@H]1CN(C)C(=O)Nc1ccc(C(F)(F)F)cc1`, the growth inhibition call is “inactive”.

Take `Cc1ccc(S(=O)(=O)N(C)C[C@H]2Oc3cc(C#Cc4ccccc4)ccc3S(=O)(=O)N([C@H](C)CO)C[C@@H]2C)cc1`: the growth inhibition call is “inactive”.

Consider `COc1ccc(NC(=O)N(C)C[C@@H]2OCCCC[C@H](C)Oc3ccc(NC(=O)Nc4ccc5c(c4)OCO5)cc3C(=O)N([C@@H](C)CO)C[C@H]2C)cc1`, for which the growth inhibition call is “inactive”.

In the case of `C[C@H](CO)N1C[C@H](C)[C@@H](CN(C)Cc2ccc(C(F)(F)F)cc2)OCCCC[C@H](C)Oc2ccc(NS(=O)(=O)c3ccc(F)cc3)cc2C1=O`, the growth inhibition call was “inactive”.

Consider `C[C@H](CO)N1C[C@H](C)[C@H](CN(C)Cc2ccc(-c3ccccc3)cc2)Oc2c(NS(=O)(=O)c3ccc(F)cc3)cccc2C1=O`, for which the growth inhibition call was “inactive”.

Take `CC(C)[C@H](NC(=O)[C@H](C)N(C)C)C(=O)N1CC[C@@H]2Oc3ccc(cc3)/C=C\NC(=O)[C@H](Cc3ccccc3)NC(=O)[C@H]21`: the growth inhibition call was “inactive”.

For `CC(C)N1C[C@H](CN(C)Cc2ccc(Oc3ccccc3)cc2)Oc2c(NC(=O)c3ccncc3)cccc2C1=O`, the growth inhibition call is “inactive”.

In the case of `CC(C)N1CC2(CN([C@@H](C)c3ccc(Cl)cc3)C2)Oc2c(NC(=O)c3ccncc3)cccc2C1=O`, the growth inhibition call was “inactive”.

Regarding `CO[C@@H]1[C@@H](OC(=O)c2ccc(C)[nH]2)[C@@H](O)[C@@H](Oc2ccc3c(c2C)OC(=O)[C@H](NC(=O)c2[nH]cc(CC(=O)Nc4cc5ccc(O[C@@H]6OC(C)(C)[C@H](OC)[C@@H](OC(=O)c7ccc(C)[nH]7)[C@H]6O)c(C)c5oc4=O)c2C)C3)CC1(C)C`, the growth inhibition call was “inactive”.

For `Cc1ccc(S(=O)(=O)Nc2ccc3c(c2)C(=O)N([C@H](C)CO)C[C@@H](C)[C@H](CN(C)S(=O)(=O)c2ccc(F)cc2)OCCCC[C@@H](C)O3)cc1`, the growth inhibition call was “inactive”.

As for `O=C(c1ccc(Cl)cc1)c1coc2c1cc(O)c1ccccc12`, the growth inhibition call was “inactive”.

For the compound `C[C@@H]1CCCCO[C@H](CN(C)C(=O)c2ccccc2)[C@H](C)CN([C@H](C)CO)C(=O)c2cc(NS(=O)(=O)c3cccs3)ccc2O1`, the growth inhibition call is “inactive”.

In the case of `Cc1noc(C)c1NC(=O)Nc1ccc2c(c1)C(=O)N([C@H](C)CO)C[C@@H](C)[C@H](CN(C)C(=O)c1ccccc1)OCCCC[C@H](C)O2`, the growth inhibition call is “inactive”.

With `Cc1noc(C)c1NC(=O)N(C)C[C@H]1OCCCC[C@@H](C)Oc2ccc(NC(=O)Cc3ccccc3)cc2C(=O)N([C@@H](C)CO)C[C@@H]1C`, the growth inhibition call is “inactive”.

For the compound `O=C(C[C@@H]1C=C[C@H](NC(=O)C2CC2)[C@H](CO)O1)NCCCN1CCOCC1`, the growth inhibition call was “inactive”.

For `C[C@H](CO)N1C[C@H](C)[C@@H](CN(C)S(=O)(=O)c2ccc(Cl)cc2)Oc2ccc(NC(=O)Nc3ccc(C(F)(F)F)cc3)cc2CC1=O`, the growth inhibition call is “inactive”.
